# Data reported in PubChem BioAssay (NCATS).
# Values joined by “and” are separate entries in the source; they are usually repeats but may differ in a detail not shown here. Equal entries are not always repeated. The shares of active, inactive and inconclusive entries below differ from those in the screen. For part of these data: Potencies beside an inconclusive call are fits to weak or partial responses and may not hold up. More than one record can exist for a structure, and the calls need not agree. Active and inactive are the calls of the source. Unless noted, calls come from the whole dose curve; as a rule, active = well fitted curve in the direction sought with a large enough effect in the repeat runs; inconclusive = weak or mixed curves; inactive = no such curve, though single readings can be large; an effect the other way counts as inactive or inconclusive.
# Key:
# [1] = qHTS assay for small molecule agonists of the antioxidant response element (ARE) signaling pathway measured by Nrf2-dependant transcriptional activity (AID 720636); note: potency is the fitted concentration of half-maximal effect
# Outline: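 Reporter gene assay, HepG2 ARE-luc: 16 hr compound, 37 C, 5% CO2; read-out luciferase luminescence.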
# [2] = qHTS Assay for Identifying Gametocytocidal Compounds (AID 743244; active = well fitted curve in the direction sought with a large enough effect; inconclusive = small, poorly fitted or top-dose-only effect, or another doubt; inactive = no such curve, though single readings can be large; an effect the other way counts as inactive or inconclusive; note: potency is the fitted concentration of half-maximal effect;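 for max response: % is set by controls: 0 for no effect and ±100 for the full control effect; actives lower the fluorescent signal which means gametocytes are killed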); conditions: P. falciparum 3D7 stage III-V gametocytes, alamarBlue, 72 h; max response: stronger effect = lower value
# Outline: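 P. falciparum 3D7 stage III–V gametocytes (20,000 cells/well) were exposed to compounds for 72 h at 37 °C, 5% CO2. AlamarBlue was then added for 24 h; decreased resorufin fluorescence (Ex 525/Em 598 nm) indicated loss of viability.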
# [3] = qHTS assay for small molecule antagonists of the retinoid-related orphan receptor gamma (ROR-gamma) signaling pathway - cell viability counter screen (AID 720652);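 note: compound exposure lasted 16 hr before ATP read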; note: potency is the fitted concentration of half-maximal effect
# Outline: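 CHO cells carrying TET-inducible ROR and RORE-luciferase reporter, plated 5 hr, then dosed with compound plus doxycycline. After 16 hr at 37 C, viability read as intracellular ATP by CellTiter-Glo luminescence.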
# [4] = qHTS assay for small molecule agonists of the antioxidant response element (ARE) signaling pathway measured by Nrf2-dependant transcriptional activity - cell viability counter screen (AID 720653); conditions: ARE-bla HepG2 viability, CellTiter-Glo ATP luminescence, 16 h; max response: stronger effect = lower value; note: potency is the fitted concentration of half-maximal effect; for max response: % is set by controls: 0 for no effect and ±100 for the full control effect
# Outline: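 ARE-bla HepG2 cells (2,000/well) rested 5 hrs at 37C/5% CO2, then exposed to compounds in DMSO for 16 hrs. Viability was read in the same wells as intracellular ATP by luminescence, 30 min at room temperature after reagent addition.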
# [5] = molecular target: Hexokinase-4 (Homo sapiens) + Glucokinase regulatory protein (Homo sapiens) (UniProt P35557+Q14397); test: qHTS assay for inhibitors of recombinant human GCK-GKRP interaction: HTRF assay (AID 743207; active = well fitted curve in the direction sought with a large enough effect; inconclusive = small, poorly fitted or top-dose-only effect, or another doubt; inactive = no such curve, though single readings can be large; an effect the other way counts as inactive or inconclusive;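 note: 0% = DMSO with GCK present and -100% = DMSO wells lacking GCK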)
# Outline: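 HTRF read-out (ex 320 nm; 615/665 nm emission) after 60 min RT equilibration of 5 nM GST-GCK, 5 nM FLAG-GKRP, 2 uM S6P, compound and anti-FLAG/anti-GST detection antibodies; signal normalized between DMSO wells with and without GCK.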
# Tags give direction and shape of the fitted curve.
# Sequence of UniProt P35557 (P35557 whole entry, looked up): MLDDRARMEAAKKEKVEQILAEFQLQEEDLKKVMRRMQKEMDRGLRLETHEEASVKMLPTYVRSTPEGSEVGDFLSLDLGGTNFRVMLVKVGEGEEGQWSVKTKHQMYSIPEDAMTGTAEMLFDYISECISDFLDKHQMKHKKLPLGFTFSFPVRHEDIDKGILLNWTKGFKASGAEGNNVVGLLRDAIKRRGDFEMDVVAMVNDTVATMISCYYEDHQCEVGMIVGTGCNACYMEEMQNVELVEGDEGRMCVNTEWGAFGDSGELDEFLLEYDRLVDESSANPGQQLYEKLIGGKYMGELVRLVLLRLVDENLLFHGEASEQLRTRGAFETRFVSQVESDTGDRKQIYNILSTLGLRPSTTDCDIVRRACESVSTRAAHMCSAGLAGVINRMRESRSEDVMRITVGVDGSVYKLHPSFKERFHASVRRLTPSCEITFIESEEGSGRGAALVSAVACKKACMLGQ
# Sequence of UniProt P35557 (Q14397 whole entry, looked up): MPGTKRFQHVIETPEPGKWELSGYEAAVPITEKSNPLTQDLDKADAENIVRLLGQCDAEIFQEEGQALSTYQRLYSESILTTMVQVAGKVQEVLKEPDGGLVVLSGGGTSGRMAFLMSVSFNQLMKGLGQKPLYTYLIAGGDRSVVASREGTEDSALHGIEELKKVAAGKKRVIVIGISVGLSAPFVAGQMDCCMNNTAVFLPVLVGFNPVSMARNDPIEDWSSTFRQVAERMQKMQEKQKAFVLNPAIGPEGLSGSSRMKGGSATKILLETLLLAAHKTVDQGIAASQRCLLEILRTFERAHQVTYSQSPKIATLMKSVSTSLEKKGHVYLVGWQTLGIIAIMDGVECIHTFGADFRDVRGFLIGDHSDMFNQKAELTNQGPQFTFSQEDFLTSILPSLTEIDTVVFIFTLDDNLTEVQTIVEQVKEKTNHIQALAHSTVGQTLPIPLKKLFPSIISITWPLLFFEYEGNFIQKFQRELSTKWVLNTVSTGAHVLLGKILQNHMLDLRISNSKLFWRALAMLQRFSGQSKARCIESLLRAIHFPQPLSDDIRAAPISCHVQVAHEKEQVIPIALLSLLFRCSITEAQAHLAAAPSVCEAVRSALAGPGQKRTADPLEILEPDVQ
smiles,measurement,setting,value
COP(=S)(OC)Oc1cc(Cl)c(Cl)cc1Cl,Potency,[1],inactive
same,max response,[2],inactive: -2.95% and inactive: 7.49%
CN1C[C@H](C(=O)N[C@]2(C)O[C@@]3(O)[C@@H]4CCCN4C(=O)[C@H](Cc4ccccc4)N3C2=O)C=C2c3cccc4[nH]cc(c34)C[C@H]21,Potency,[1],inactive
same,Potency,[2],active: 8.91 µM
CCCCCCCCCCCCCCCC[N+](C)(C)C,Potency,[1],"inconclusive: 34.4 µM [activator, partial curve, poor fit]"
same,Potency,[2],active: 10 µM
C=CCN=C=S,Potency,[3],"inconclusive: 75 µM [rising, partial curve, poor fit]"
Oc1c(Br)cc(Br)cc1Br,Potency,[1],"inconclusive: 61.1 µM [activator, partial curve, poor fit]"
C[C@]12C/C(=C/O)C(=O)C[C@@H]1CC[C@@H]1[C@@H]2CC[C@@]2(C)[C@H]1CC[C@]2(C)O,Potency,[1],"inconclusive: 68.6 µM [activator, partial curve, poor fit] and inconclusive: 66.8 µM [activator, partial curve, poor fit]"
same,Potency,[3],"inconclusive: 66.8 µM [cytotoxic, partial curve, poor fit]"
N[C@@H](Cc1ccc(N(CCCl)CCCl)cc1)C(=O)O,Potency,[1],"inconclusive: 54.5 µM [activator, partial curve, poor fit] and inconclusive: 66.8 µM [activator, partial curve, poor fit]"
same,Potency,[3],active: 21.1 µM
same,max response,[2],inactive: 7.49%
Clc1ccc(C(c2ccc(Cl)cc2)C(Cl)(Cl)Cl)cc1,Potency,[3],"inconclusive: 75 µM [cytotoxic, single point]"
O=C(CCl)c1ccc(Cl)cc1Cl,Potency,[1],"inconclusive: 47.3 µM [activator, partial curve]"
same,Potency,[3],active: 21.1 µM
same,Potency,[4],"inconclusive: 39.8 µM [cytotoxic, partial curve, poor fit]"
COP(=O)(OC)OC=C(Cl)Cl,Potency,[3],"inconclusive: 59.6 µM [cytotoxic, partial curve, poor fit]"
NCC(O)c1ccc(O)cc1 (stereo not drawn),Potency,[3],inactive
CCOC(=O)CC(SP(=S)(OC)OC)C(=O)OCC (stereo not drawn),Potency,[1],"inactive and inconclusive: 109 µM [activator, partial curve, poor fit]"
same,Potency,[3],inactive
CC(C)Nc1ccc(Nc2ccccc2)cc1,Potency,[1],"inconclusive: 29.8 µM [activator, partial curve]"
same,Potency,[3],"inconclusive: 66.8 µM [cytotoxic, partial curve]"
O=C(O)C(Cl)Cl,Potency,[3],"inconclusive: 0.0841 µM [rising, full curve, poor fit]"
COC(C)(C)CCCC(C)C/C=C/C(C)=C/C(=O)OC(C)C (stereo not drawn),Potency,[1],"inconclusive: 61.1 µM [activator, partial curve, poor fit] and inconclusive: 13.3 µM [activator, full curve, poor fit]"
same,Potency,[3],"inconclusive: 75 µM [cytotoxic, single point]"
Clc1ccc(COC(Cn2ccnc2)c2ccc(Cl)cc2Cl)cc1 (stereo not drawn),Potency,[3],"inconclusive: 42.2 µM [cytotoxic, partial curve, poor fit]"
CCCSP(=O)(OCC)SCCC,Potency,[1],inactive
same,max response,[4],inactive: -15.9%
COc1ccc(C(c2ccc(OC)cc2)C(Cl)(Cl)Cl)cc1,Potency,[1],"inconclusive: 19.3 µM [activator, full curve, poor fit]"
same,Potency,[3],active: 66.8 µM and active: 42.2 µM
CNC(=O)Oc1cccc2ccccc12,Potency,[1],"inconclusive: 59.6 µM [activator, partial curve, poor fit] and inconclusive: 48.6 µM [activator, partial curve, poor fit]"
same,Potency,[2],active: 35.5 µM
O=C1C2CC=CCC2C(=O)N1SC(Cl)(Cl)Cl (stereo not drawn),Potency,[1],"inconclusive: 37.6 µM [activator, partial curve, poor fit] and inconclusive: 15.4 µM [activator, partial curve, poor fit]"
same,Potency,[3],active: 29.8 µM
same,Potency,[4],active: 28.2 µM
Cc1cc(SCc2sc(-c3ccc(C(F)(F)F)c(F)c3)nc2C)ccc1OCC(=O)O,Potency,[1],"inconclusive: 12.2 µM [activator, partial curve, poor fit]"
same,max response,[4],inactive: -1.47%
C[C@H]1CC[C@@H]2[C@@H](C)[C@H]3[C@H](C[C@H]4[C@@H]5CC=C6CC(O[C@@H]7O[C@H](CO)[C@H](O)[C@H](O[C@@H]8O[C@H](CO)[C@@H](O)[C@H](O)[C@H]8O)[C@H]7O[C@H]7O[C@@H](C)[C@H](O)[C@@H](O)[C@H]7O)CC[C@]6(C)[C@H]5CC[C@]34C)N2C1 (stereo partly drawn),Potency,[3],active: 18.8 µM
CN(C)NC(=O)CCC(=O)O,Potency,[3],inactive
O=[N+]([O-])C(Br)(CO)CO,Potency,[1],"inconclusive: 86.3 µM [activator, partial curve, poor fit]"
same,Potency,[2],"inconclusive: 17.8 µM [inhibitor, single point]"
COP(=S)(OC)Oc1ccc(Sc2ccc(OP(=S)(OC)OC)cc2)cc1,Potency,[1],"inconclusive: 54.5 µM [activator, partial curve, poor fit]"
COP(=O)(OC)C(O)C(Cl)(Cl)Cl (stereo not drawn),Potency,[1],"inconclusive: 68.6 µM [activator, single point]"
same,Potency,[2],"inconclusive: 25.1 µM [inhibitor, single point]"
CC(=O)[O][Hg][c]1ccccc1,Potency,[3],active: 1.33 µM
same,Potency,[4],active: 35.5 µM and active: 14.1 µM
OCCCBr,Potency,[1],inactive
CCOP(=S)(OCC)O/N=C(\C#N)c1ccccc1,Potency,[1],"inconclusive: 54.5 µM [activator, partial curve, poor fit]"
NC(N)=Nc1ccc2[nH]c3c(c2c1)C[C@@]1(O)[C@H]2Cc4ccc(O)c5c4[C@@]1(CCN2CC1CC1)[C@H]3O5,Potency,[2],"inconclusive: 3.16 µM [inhibitor, partial curve]"
C[C@]12CC[C@H]3[C@@H](CCC4=CC(=O)CC[C@@H]43)[C@@H]1CC[C@@H]2O,max response,[2],inactive: -13.9% and inactive: -1.26%
CCCN(CCC)c1c([N+](=O)[O-])cc(S(N)(=O)=O)cc1[N+](=O)[O-],Potency,[4],"inconclusive: 70.8 µM [cytotoxic, single point]"
same,Potency,[2],"inconclusive: 35.5 µM [inhibitor, partial curve]"
Oc1cc[c]([Hg][Cl])cc1,Potency,[2],active: 3.55 µM and active: 2.82 µM
CN1[C@@H]2CC[C@H]1CC(OC(=O)c1cc(Cl)cc(Cl)c1)C2 (stereo partly drawn),Potency,[2],"inconclusive: 35.5 µM [inhibitor, single point]"
COC(COC(N)=O)C1=C(N2CC2)C(=O)C(C)=C(N2CC2)C1=O (stereo not drawn),Potency,[2],"inconclusive: 22.4 µM [inhibitor, single point]"
CCC(OC(C)=O)C(CC(C)NC)(c1ccccc1)c1ccccc1 (stereo not drawn),Potency,[2],"inconclusive: 63.1 µM [inhibitor, single point]"
C=CCOC(Cn1ccnc1)c1ccc(Cl)cc1Cl (stereo not drawn),Potency,[2],"inconclusive: 35.5 µM [inhibitor, single point]"
CO/C=C(/C(=O)OC)c1ccccc1Oc1cc(Oc2ccccc2C#N)ncn1,Potency,[4],"inconclusive: 10 µM [cytotoxic, full curve, poor fit]"
C=C[C@H]1CN2CC[C@H]1C[C@@H]2[C@@H](O)c1ccnc2ccccc12,Potency,[2],"inconclusive: 1.58 µM [inhibitor, full curve, poor fit]"
CCCCCCCCCCCC[N+](C)(C)CCOc1ccccc1,Potency,[3],active: 26.6 µM
same,Potency,[2],active: 8.91 µM
C[C@@H]1[C@@H](C(=O)C[C@H]2O[C@@H]3O[C@]4(C)CC[C@@H]5[C@H](C)CC[C@@H]([C@H]2C)[C@@]35OO4)O[C@@H]2O[C@]3(C)CC[C@H]4[C@H](C)CC[C@@H]1[C@@]24OO3,Potency,[2],active: 0.0066 µM
C=C(C)[C@H]1Cc2c(ccc3c2O[C@@H]2COc4cc(OC)c(OC)cc4[C@@H]2C3=O)O1,Potency,[4],"inconclusive: 10 µM [cytotoxic, partial curve, poor fit]"
same,max response,[2],inactive: 2.33% and inactive: 3.94%
C=CCN1C[C@H](C)N([C@H](c2ccc(C(=O)N(CC)CC)cc2)c2cccc(OC)c2)C[C@H]1C,Potency,[2],"inconclusive: 17.8 µM [inhibitor, single point]"
C[C@H]1CNCCc2ccc(Cl)cc21,max response,[2],inactive: 16.3%
O=c1[nH]c(=O)n(Cl)c(=O)n1Cl,max response,[4],inactive: -11%
C[C@H](CN1CCOCC1)C(C(=O)N1CCCC1)(c1ccccc1)c1ccccc1,Potency,[2],"inconclusive: 70.8 µM [inhibitor, single point]"
NCCc1ccc(O)cc1,max response,[2],inactive: -2.18% and inactive: 16.8%
CC[C@@H](CO)NC(=O)[C@@H]1C=C2c3cccc4c3c(cn4C)C[C@H]2N(C)C1,Potency,[2],"inconclusive: 5.62 µM [inhibitor, single point]"
CNCC(O)c1ccc(O)cc1 (stereo not drawn),Potency,[3],inactive
same,Potency,[2],"inconclusive: 1.59 µM [inhibitor, full curve]"
COC(=O)[C@@H]1[C@H]2CC[C@@H](C[C@H]1OC(=O)c1ccccc1)N2C,max response,[2],inactive: 5.25%
COc1ccc(CNC(=O)/C=C/c2ccc3[nH]cc(CCN(C)C)c3c2)cc1,Potency,[5],inactive
Clc1cccc(SC2CCNCC2)n1,Potency,[2],"inconclusive: 22.4 µM [inhibitor, single point]"
Nc1ccncc1,Potency,[4],"inconclusive: 70.8 µM [cytotoxic, single point]"
CC(C)N(CCC(C(N)=O)(c1ccccc1)c1ccccn1)C(C)C (stereo not drawn),max response,[2],inactive: 11.9% and inactive: -6.08% and inactive: 19.7%
